# Assay results published in PubChem BioAssay AID485281 (National Center for Advancing Translational Sciences (NCATS), 2010).
# The campaign covered roughly 350,000 compounds. About 260 (0.074%) were called active. This list was built around the results that the source calls inconclusive (neither active nor inactive); the mix of calls is not that of the screen. Calls come from the whole dose curve; as a rule, active = well fitted inhibition curve with a large enough effect; inconclusive = small, poorly fitted or top-dose-only effect; inactive = no such curve, though single readings can be large or run the other way. A potency beside an inconclusive call is a rough fit, not a confirmed value.
# Biological target: Ferritin light chain (Equus caballus) (UniProt P02791)
# Chain of UniProt P02791 (P02791 whole entry, looked up): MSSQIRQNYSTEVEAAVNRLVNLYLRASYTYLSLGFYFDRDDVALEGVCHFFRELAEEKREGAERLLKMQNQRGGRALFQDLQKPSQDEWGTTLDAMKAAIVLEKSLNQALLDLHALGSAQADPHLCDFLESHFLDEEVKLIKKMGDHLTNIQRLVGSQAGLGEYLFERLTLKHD
# Assay: qHTS Assay for Identification of Novel General Anesthetics; note: nearly all actives have a fitted effect of over 20% in size
# Conditions: apoferritin/1-aminoanthracene competitive binding, fluorescence; activity change, negative = displacement: at 77.5 µM (top of the series)
# Procedure, shortened: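 Horse-spleen apoferritin (10 uM) was mixed with 50% saturated 1-aminoanthracene in PBS, exposed to compounds for 10 min at room temperature, and read for fluorescence (ex 380 nm, em 535 nm). Competitive displacement was fitted with a four-parameter Hill equation.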
# % is set by controls: 0 for no effect and ±100 for the full control effect; potency is the fitted concentration of half-maximal effect; tags give direction and shape of the fitted curve.
Compound,Potency,"activity change, negative = displacement"
CCN(C(=O)C(NS(=O)(=O)c1cccc2nsnc12)c1ccccc1)c1ccccc1 (stereo unspecified),"inconclusive: 22.4 µM [inhibitor, partial curve]",
Cc1ccc(C(=O)N2c3nc(-c4ccco4)nn3C3(CCCCC3)[C@@H]3CCCC[C@@H]32)cc1,,inactive: -0.28%
C[C@H](NC(=O)c1[nH]cnc1C(=O)Nc1ccc(CNC(=O)OC(C)(C)C)cc1)C(=O)OC(C)(C)C,"inconclusive: 11.2 µM [inhibitor, partial curve]",
O=C(CSc1nnc(CCCN2C(=O)c3cccc4cccc(c34)C2=O)n1-c1ccccc1)N1CCN(CCO)CC1,,inactive: -5.09%
Cc1ccc(N(CC(=O)N2CCn3c2nc2ccccc23)S(=O)(=O)c2c(C)n[nH]c2C)cc1,"inconclusive: 3.55 µM [inhibitor, full curve, poor fit]",
Cc1cc(C)n2cc(CSc3ccc(Br)cc3)nc2n1,"inconclusive: 20 µM [inhibitor, partial curve]",
COC/C=C/C1=CC2=CC(=O)C(C)(OC(=O)c3cnc4ccccc4n3)C(=O)C2=CN1Cc1ccccc1 (stereo unspecified),,inactive: -7.17%
Cc1ccnc(NC(=O)CCC2CCCCC2)c1,"inconclusive: 39.8 µM [inhibitor, partial curve]",
CC1CCN(c2ccc(C(=O)OCC(=O)NCCN3C(=O)CSC3=O)cc2[N+](=O)[O-])CC1,"inconclusive: 35.5 µM [inhibitor, single point]",
COc1ccc(Cl)cc1NC(=O)CSc1nnc(COc2ccccc2)n1N,,inactive: -11.1%
O=C(Nc1nc(-c2ccccn2)cs1)C1CC(=O)N(c2ccc3c(c2)OCCO3)C1 (stereo unspecified),"inconclusive: 50.1 µM [inhibitor, single point]",
COc1cccc(CNCc2c(C(=O)O)n(Cc3ccc(C)cc3)c3cc(C)ccc23)c1OC,"inconclusive: 3.98 µM [inhibitor, partial curve]",
O=C(O)c1nc(NCCc2ccccc2)ncc1Cl,,inactive: -0.384%
COc1ccc(C)cc1NC(=O)NCCn1nnc2cc(S(=O)(=O)N(C)C)ccc21,,inactive: -5.06%
CCCn1cc(S(=O)(=O)c2ccc(C)cc2)c(=O)c2cc(OC)ccc21,"inconclusive: 25.1 µM [inhibitor, single point]",
Cc1ccc([N+](=O)[O-])cc1-c1[nH]c(-c2ccc(O)c(O)c2)nc1-c1ccccc1,"inconclusive: 35.5 µM [inhibitor, single point]",
Fc1cccc(NCCc2c[nH]c3ccccc23)n1,"inconclusive: 50.1 µM [inhibitor, single point]",
CCn1c2ccccc2c2cc(C3C(C#N)=C(C)NC(C)=C3C#N)ccc21,,inactive: 3.56%
Cc1ccc(SCc2nnc(N)s2)cc1,"inconclusive: 44.7 µM [inhibitor, single point]",
CC(C)N(C(=O)CSc1nnc(NC(=O)Cc2cccs2)s1)C(C)C,"inconclusive: 25.1 µM [inhibitor, partial curve]",
CN(CC1CCCN(CCc2cccc(C(F)(F)F)c2)C1)C(=O)c1cc2ccccc2o1 (stereo unspecified),"inconclusive: 25.1 µM [inhibitor, partial curve]",
CC1(C)Cc2c(c(-c3ccco3)[nH]c(=O)c2C#N)CO1,,inactive: -7.03%

Compound,Potency,"activity change, negative = displacement"
O=C(CCS(=O)(=O)c1cccs1)Nc1ccc(C(=O)NCc2ccc(F)cc2)cc1,"inconclusive: 22.4 µM [inhibitor, partial curve]",
CCN(CC)S(=O)(=O)c1cccc(-c2n[nH]c(=S)n2Cc2ccccc2)c1,,inactive: -6.11%
CCc1ccccc1NC(=S)N=Nc1c(O)n(C)c2ccc(S(=O)(=O)N3CCOCC3)cc12,,inactive: -18.6%
O=C(CCc1nnc(CCC2CCCCC2)o1)NCc1ccon1,"inconclusive: 8.91 µM [inhibitor, partial curve]",
Cc1ccc(C2C(C#N)=C(N)SC(N)=C2C#N)c(C)c1,"inconclusive: 25.1 µM [inhibitor, partial curve]",
C/C(=N\NC(=O)CNc1cccc(C)c1)c1ccc(Br)s1,"inconclusive: 50.1 µM [inhibitor, single point]",
CC(C)(C)c1ccc(OCCn2nc(C(=O)O)c3ccccc3c2=O)cc1,"inconclusive: 56.2 µM [inhibitor, single point]",
CC(C)(C)c1cc(C(=O)N/N=C/c2cc3c(cc2Br)OCO3)n[nH]1,"inconclusive: 15.8 µM [inhibitor, partial curve]",
O=C(CN1CCCC1)N1CCCc2c1c(=O)oc1ccc(OCc3ccccc3)cc21,,inactive: -16.3%
Cc1cccc(-n2nc3c(c2NC(=O)c2ccc(Br)o2)CSC3)c1,"inconclusive: 31.6 µM [inhibitor, partial curve]",
CC(C)c1c(O)ccc2c1CCC1[C@@](C)(C=O)CCC[C@@]21C (stereo partly specified),"inconclusive: 31.6 µM [inhibitor, single point]",
CC(C)C(=O)N(Cc1cc(=O)[nH]c2ccccc12)c1ccccc1,"inconclusive: 25.1 µM [inhibitor, partial curve]",
Cc1cccc(NC(=O)c2onc3c2CCCC3)c1C,"inconclusive: 22.4 µM [inhibitor, partial curve]",
Cc1ccc2occ(CC(=O)Nc3c(C)cccc3C)c2c1,,inactive: 0.102%
CC(NC(=O)c1ccccc1)c1nc2ccccc2n1Cc1ccccc1F (stereo unspecified),"inconclusive: 28.2 µM [inhibitor, partial curve]",
CC(C)c1ccc(NC(=O)C2=NNC(=O)CC2)cc1,,inactive: -2.05%
CCCN(C(=O)c1ccc2c(=O)n3c(nc2c1)CCCCC3)c1cccc(Cl)c1,"inconclusive: 28.2 µM [inhibitor, single point]",
CC(C)CC(NC(=O)OC(C)(C)C)c1cn([C@@H](CCCCNC(=O)OC(C)(C)C)C(=O)N2CCN(C(=O)OC(C)(C)C)CC2)nn1 (stereo partly specified),"inconclusive: 7.08 µM [inhibitor, full curve, poor fit]",
COc1ccc(CC(=O)Nc2ccc(-c3cn4ccccc4n3)cc2)cc1OC,,inactive: 330%
CCOC(=O)c1ccc(NC(=O)c2nc(SCc3ccc(F)cc3)ncc2Cl)cc1,"inconclusive: 44.7 µM [inhibitor, partial curve]",
CCCCOC(=O)c1ccc(NC(=O)Nc2ccc(OC)c(OC)c2)cc1,"inconclusive: 17.8 µM [inhibitor, partial curve]",
Cc1ccc(CNC(=O)CCS(=O)(=O)c2ccc(Br)cc2)cc1,,inactive: -0.478%

Compound,Potency,"activity change, negative = displacement"
COC(=O)Nc1ccc(S(=O)(=O)N2c3ccccc3CCC2C)cc1 (stereo unspecified),"inconclusive: 20 µM [inhibitor, partial curve]",
COc1cccc(C2=Nn3c(nnc3-c3ccc(OC)cc3OC)SC2)c1,"inconclusive: 35.5 µM [inhibitor, single point]",
CC1CCCC(NC(=O)COC(=O)Cc2cn3ccsc3n2)C1C (stereo unspecified),"inconclusive: 35.5 µM [inhibitor, partial curve]",
COc1cccc(C2CC(c3ccc(Cl)cc3)n3nc(N)nc3N2)c1 (stereo unspecified),,inactive: -4.79%
CCOc1ccc2c(c1)NC(c1ccc(OCC)c(OCC)c1)=NC(c1ccc(F)cc1)=N2,"inconclusive: 31.6 µM [inhibitor, single point]",
Cc1cccc(C)c1OCCn1nc(C(=O)O)c2ccccc2c1=O,"inconclusive: 35.5 µM [inhibitor, partial curve]",
CN(C)c1ccc(C(=S)N2CCCCC2)cc1,"inconclusive: 31.6 µM [inhibitor, partial curve]",
CCC1C(=O)C(C)(C)C(=O)OC1c1ccc([N+](=O)[O-])cc1 (stereo unspecified),"inconclusive: 28.2 µM [inhibitor, single point]",
COC(=O)c1c(NC(=O)C2COc3ccccc3O2)sc2c1CCN(C(C)=O)C2 (stereo unspecified),"inconclusive: 31.6 µM [inhibitor, partial curve]",
O=C1COc2ccc(-c3csc(NCC4CCCO4)n3)cc2N1 (stereo unspecified),"inconclusive: 56.2 µM [inhibitor, single point]",
CCOC(=O)c1cnn(-c2nc(-c3ccccc3F)cs2)c1C(F)(F)F,"inconclusive: 22.4 µM [inhibitor, partial curve]",
Cc1cccc(C)c1Nc1nnc(SCC(=O)Nc2ncc(C(F)(F)F)cc2Cl)s1,"inconclusive: 50.1 µM [inhibitor, single point]",
Cc1nnc(NC(=O)c2sc3nc(-c4cccs4)cc(C(F)(F)F)c3c2N)s1,"inconclusive: 22.4 µM [inhibitor, partial curve]",
O=S(=O)(Nc1ccc(-c2cn3c(n2)SCC3)cc1)c1ccccc1F,"inconclusive: 14.1 µM [inhibitor, partial curve]",
CCc1cccc2c(C(=S)N3CCOCC3)c[nH]c12,"inconclusive: 39.8 µM [inhibitor, single point]",
C=CCNC(=O)c1ccc(Sc2ccccc2)c([N+](=O)[O-])c1,"inconclusive: 39.8 µM [inhibitor, partial curve]",
Cc1ccc(-c2c(C(=O)Nc3ccccc3F)oc(=O)c3ccccc23)cc1,,inactive: -0.956%
CN(C)c1nc(Nc2ccc(F)cc2)nc(Oc2ccc(F)cc2)n1,,inactive: -6.98%
O=C1/C(=C\c2ccc(O)c(O)c2)SC(=S)N1Cc1ccccc1,"inconclusive: 35.5 µM [inhibitor, single point]",
CCn1cc(C(=O)N2CC=C(c3ccccc3)CC2)c(=O)c2ccc(C)nc21,"inconclusive: 5.01 µM [inhibitor, full curve]",
Cc1ccc(C)c(N2CCN(C(=O)Cn3cnc4nc5c(cc4c3=O)CCCC5)CC2)c1,"inconclusive: 31.6 µM [inhibitor, partial curve]",
COc1ccc(/C(C)=N/NC(=O)CNC(=O)/C=C\c2ccco2)cc1,"inconclusive: 15.8 µM [inhibitor, partial curve]",
